These results are taken from PMC7509237.

Chains of the proteins cited; added tags and fusions are not shown.
UniProt P49715: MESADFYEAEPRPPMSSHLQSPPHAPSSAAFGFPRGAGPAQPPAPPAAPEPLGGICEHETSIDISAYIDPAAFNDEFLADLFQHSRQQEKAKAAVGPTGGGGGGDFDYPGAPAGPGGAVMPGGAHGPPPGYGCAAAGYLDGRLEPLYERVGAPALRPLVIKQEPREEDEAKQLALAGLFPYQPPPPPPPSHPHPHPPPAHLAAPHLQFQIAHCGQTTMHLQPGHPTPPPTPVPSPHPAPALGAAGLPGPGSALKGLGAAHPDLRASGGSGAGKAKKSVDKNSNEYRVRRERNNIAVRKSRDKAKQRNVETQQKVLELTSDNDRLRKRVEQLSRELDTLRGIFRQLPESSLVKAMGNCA
UniProt P05412: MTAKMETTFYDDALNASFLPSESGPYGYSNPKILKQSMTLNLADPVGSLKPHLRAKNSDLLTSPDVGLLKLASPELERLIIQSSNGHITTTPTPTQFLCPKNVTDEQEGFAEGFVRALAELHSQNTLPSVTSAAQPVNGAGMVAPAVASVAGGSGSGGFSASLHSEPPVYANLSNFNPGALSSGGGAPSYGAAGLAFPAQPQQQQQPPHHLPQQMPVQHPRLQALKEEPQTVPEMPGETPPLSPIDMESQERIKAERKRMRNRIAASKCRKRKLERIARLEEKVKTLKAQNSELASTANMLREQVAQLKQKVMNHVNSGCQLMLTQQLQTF
UniProt P17676: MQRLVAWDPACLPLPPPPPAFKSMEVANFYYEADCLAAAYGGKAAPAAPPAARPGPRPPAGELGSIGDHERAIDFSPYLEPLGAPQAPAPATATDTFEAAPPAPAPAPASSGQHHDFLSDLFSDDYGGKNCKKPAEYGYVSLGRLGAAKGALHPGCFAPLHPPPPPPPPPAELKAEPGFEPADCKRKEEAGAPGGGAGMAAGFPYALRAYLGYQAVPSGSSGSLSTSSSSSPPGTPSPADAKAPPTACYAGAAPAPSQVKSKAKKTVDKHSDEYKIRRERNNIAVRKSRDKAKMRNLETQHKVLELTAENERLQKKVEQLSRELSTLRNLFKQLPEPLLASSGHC
UniProt P37231: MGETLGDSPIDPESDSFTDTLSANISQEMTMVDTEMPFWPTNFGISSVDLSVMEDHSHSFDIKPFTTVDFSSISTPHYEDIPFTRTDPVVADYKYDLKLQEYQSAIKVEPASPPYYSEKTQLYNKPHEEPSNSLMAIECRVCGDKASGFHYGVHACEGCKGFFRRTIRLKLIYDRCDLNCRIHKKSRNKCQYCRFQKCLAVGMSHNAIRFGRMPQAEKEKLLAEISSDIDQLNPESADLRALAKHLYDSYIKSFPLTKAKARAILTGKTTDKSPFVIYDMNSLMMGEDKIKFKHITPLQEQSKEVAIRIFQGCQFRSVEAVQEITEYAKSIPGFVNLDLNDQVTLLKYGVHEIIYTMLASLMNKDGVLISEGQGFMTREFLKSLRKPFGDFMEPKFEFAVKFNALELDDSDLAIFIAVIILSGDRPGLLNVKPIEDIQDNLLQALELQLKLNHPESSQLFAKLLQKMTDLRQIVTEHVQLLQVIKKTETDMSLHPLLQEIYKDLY
UniProt Q13227: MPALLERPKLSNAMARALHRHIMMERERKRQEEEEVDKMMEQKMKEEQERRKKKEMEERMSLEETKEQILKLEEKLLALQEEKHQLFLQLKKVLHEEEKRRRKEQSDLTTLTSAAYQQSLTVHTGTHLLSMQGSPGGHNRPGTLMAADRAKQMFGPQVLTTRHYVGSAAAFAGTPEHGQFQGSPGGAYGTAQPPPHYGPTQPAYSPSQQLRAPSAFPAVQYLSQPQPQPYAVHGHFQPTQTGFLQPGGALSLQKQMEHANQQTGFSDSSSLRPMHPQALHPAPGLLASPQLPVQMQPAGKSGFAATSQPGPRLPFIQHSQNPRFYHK

Among the targets are Flag-tagged C/EBPα (UniProt P49715); 3XFlag-V5-tagged c-JUN (UniProt P05412); Flag-tagged C/EBPβ (UniProt P17676); Flag-tagged PPARγ (UniProt P37231).
What all share (test): co-IP; HEK293 cells co-transfected with HA-GPS2 and a Flag-tagged partner; lysed 48 h after transfection; lysate with anti-Flag on protein A magnetic beads, 3 h at 4 °C; five washes with lysis buffer; blotted with anti-Flag or anti-HA
For another test, the target named is T1, Flag-tagged PPARα (UniProt Q07869).
T1 sequence: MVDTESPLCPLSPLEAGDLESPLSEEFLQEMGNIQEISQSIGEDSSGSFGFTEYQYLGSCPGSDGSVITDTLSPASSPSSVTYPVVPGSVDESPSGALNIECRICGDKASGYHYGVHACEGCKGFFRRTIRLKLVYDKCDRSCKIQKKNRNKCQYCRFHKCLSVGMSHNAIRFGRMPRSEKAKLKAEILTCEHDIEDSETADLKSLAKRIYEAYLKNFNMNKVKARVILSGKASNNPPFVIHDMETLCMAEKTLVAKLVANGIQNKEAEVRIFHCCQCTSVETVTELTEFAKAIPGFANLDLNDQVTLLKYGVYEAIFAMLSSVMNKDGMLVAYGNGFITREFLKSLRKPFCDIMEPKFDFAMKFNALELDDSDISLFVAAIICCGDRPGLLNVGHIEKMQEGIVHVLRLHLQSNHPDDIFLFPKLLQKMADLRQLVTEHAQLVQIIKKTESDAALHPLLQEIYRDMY

These are yes or no findings as the source states them, for the method shown. In cells and extracts the contact can be indirect. Some binding calls cover weakened binding; strength is not graded here. For some assays here: Where a sequence is shown, tags or fusion partners need not be part of it.

As for “HA-GPS2 (human G protein pathway suppressor 2 WT, amino acid 1-327) (from UniProt Q13227 1-327)”, the binding result is “no binding” in the test with Flag-tagged C/EBPα; “binds” in the test with 3XFlag-V5-tagged c-JUN; “no binding” in the test with Flag-tagged C/EBPβ; “binds” in the test with Flag-tagged PPARα; “binds” with Flag-tagged PPARγ.
